About 2,200 (0.71%) of roughly 310,000 compounds showed an effect of 50% or more. The effect is printed as a negative number. Some of the results follow.
Target: human ether-à-go-go-related gene (hERG) potassium channel (human, UniProt Q12809)
Test: primary screen, population patch clamp on CHO cells stably expressing hERG

Chain of human ether-à-go-go-related gene (hERG) potassium channel (Q12809 whole entry, looked up): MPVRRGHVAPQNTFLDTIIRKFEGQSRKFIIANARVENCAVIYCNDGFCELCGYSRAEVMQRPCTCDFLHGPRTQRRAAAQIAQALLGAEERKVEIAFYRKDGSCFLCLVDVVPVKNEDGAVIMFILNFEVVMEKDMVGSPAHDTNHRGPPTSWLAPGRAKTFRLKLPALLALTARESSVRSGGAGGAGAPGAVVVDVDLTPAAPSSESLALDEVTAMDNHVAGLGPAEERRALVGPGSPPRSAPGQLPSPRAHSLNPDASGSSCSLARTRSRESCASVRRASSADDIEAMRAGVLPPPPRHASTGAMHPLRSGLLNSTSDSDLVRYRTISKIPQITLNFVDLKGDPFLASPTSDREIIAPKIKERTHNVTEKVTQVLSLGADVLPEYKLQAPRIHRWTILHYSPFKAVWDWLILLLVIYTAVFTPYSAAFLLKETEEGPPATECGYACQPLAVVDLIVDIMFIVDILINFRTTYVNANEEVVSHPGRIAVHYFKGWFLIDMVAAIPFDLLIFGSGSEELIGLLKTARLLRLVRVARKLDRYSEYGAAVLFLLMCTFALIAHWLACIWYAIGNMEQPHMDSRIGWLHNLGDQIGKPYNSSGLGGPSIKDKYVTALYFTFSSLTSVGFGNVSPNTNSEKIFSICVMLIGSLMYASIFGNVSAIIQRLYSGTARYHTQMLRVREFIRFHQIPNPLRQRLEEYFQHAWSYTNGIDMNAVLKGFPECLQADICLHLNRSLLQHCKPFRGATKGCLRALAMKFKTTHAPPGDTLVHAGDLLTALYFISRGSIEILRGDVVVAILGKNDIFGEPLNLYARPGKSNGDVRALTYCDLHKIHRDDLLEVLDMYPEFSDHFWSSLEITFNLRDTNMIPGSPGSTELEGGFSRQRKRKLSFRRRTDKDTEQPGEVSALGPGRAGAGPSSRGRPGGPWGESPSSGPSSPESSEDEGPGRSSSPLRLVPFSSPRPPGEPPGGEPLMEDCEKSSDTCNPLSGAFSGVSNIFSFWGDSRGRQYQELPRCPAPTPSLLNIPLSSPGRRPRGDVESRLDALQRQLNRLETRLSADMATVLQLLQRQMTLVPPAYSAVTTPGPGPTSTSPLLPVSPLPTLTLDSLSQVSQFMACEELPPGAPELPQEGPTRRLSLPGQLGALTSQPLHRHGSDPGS

| SMILES | hERG current change (%, negative = inhibition) at 1uM [%] |
| --- | --- |
| CN(Cc1cccs1)S(=O)(=O)c1cccs1 | 14.7 |
| CC(=O)N1N=C(c2cccs2)CC1c1cc2cc(C)ccc2nc1Cl (centres unmarked) | 9.16 |
| COc1ccc(C(=O)Nc2ccc(S(=O)(=O)Nc3cc(C)nc(C)n3)cc2)c(OC)c1 | 6.48 |
| CC(C)N1CCc2[nH]c(=S)[nH]c(=O)c2C1 | 4.91 |
| NC(=O)[C@@H]1CCCNc2c(I)cc([N+](=O)[O-])cc2C(=O)N[C@@H](CO)C(=O)N[C@@H](Cc2ccc(O)cc2)C(=O)N1 | 19.1 |
| NS(=O)(=O)c1ccc(CNC(=S)Nc2ccc(F)c(Cl)c2)cc1 | 24.1 |
| c1csc(-c2ccc3ccccc3n2)c1 | 11 |
| CN(C)c1ccc(NC(=S)c2ccccn2)cc1 | 17.9 |
| Cc1nc(Nc2cccc(Cl)c2)c2oc3ccccc3c2n1.Cl | 9.74 |
| CCN(CC)S(=O)(=O)c1ccc(C(=O)NCC(=O)N/N=C/c2ccccc2OC)cc1 | -3.97 |
| Cc1ccc(NC(=O)CCNS(=O)(=O)c2ccc3[nH]c(=O)oc3c2)cc1F | 12.7 |
| Cc1nc(NC(=O)c2ccc(F)cc2)sc1C(=O)Nc1ccc2c(c1)CCC2 | 15.5 |
| COc1ccc(C(=O)n2nc(C)c(Br)c2C)cc1 | 15.5 |
| Oc1ccc2ccccc2c1CN1CCN(c2ccccc2)CC1 | 10.5 |
| CCCCCNc1nc(NCCCO)c(C#N)c2c1CN(C)CC2 | -46.9 |
| CCCn1cc2c(c1-c1cccc(C)c1)c(=O)n(C)c(=O)n2C | 7.06 |
| CCCCNC(C(=O)Nc1ccc(Cl)c([N+](=O)[O-])c1)c1ccccc1.O=C(O)C(=O)O (centres unmarked) | 11.5 |
| Cc1ccc(S(=O)(=O)N2CCOCC2)cc1C(=O)OC(C)C(=O)NC1CCCC1 (centres unmarked) | -0.763 |
| Cc1ccc2nc(N3CCC(C(=O)O)CC3)nc(-c3ccccc3)c2c1 | 14.9 |
| CN(C)c1ccc(NC(=O)CSc2nnc(-c3ccco3)c(-c3ccco3)n2)cc1 | 12.4 |
| O=C(CCS(=O)(=O)c1ccc(Cl)cc1)N1CCN(S(=O)(=O)c2cccs2)CC1 | 5.34 |
| CCCCC(=O)Nc1ccccc1CC | -31.3 |

| SMILES | hERG current change (%, negative = inhibition) at 1uM [%] |
| --- | --- |
| O=C(O)CCn1c(SCCOc2ccccc2)nc2ccccc21 | 14.1 |
| CCCN1C(=O)C2C(C(=O)Nc3cccc(OC)c3)C3C=CC2(O3)C1C(=O)NC1CCCCC1 (centres unmarked) | 9.65 |
| CCSc1nc2c(c(=O)n(C)c(=O)n2C)n1Cc1ccc(Cl)cc1 | 10.1 |
| Cc1ccn2c(=O)nc(SCC(=O)N3CCCc4ccccc43)nc2c1 | 5.31 |
| COc1ccc(C(=O)CSc2nnc(-c3ccc(C)cc3)o2)cc1 | 4.57 |
| CCC(C)NC(=O)c1ccccc1NS(=O)(=O)c1ccc(OC)c(OC)c1 (centres unmarked) | 11.8 |
| CCCn1c2ccccc2c2cnn(CC(=O)NCCN(CC)CC)c(=O)c21 | -67 |
| NC(=S)N1OC[C@@H]2COc3ccc4ccccc4c3[C@@H]21 | 8.8 |
| O=C(Cn1c(=O)c2sccc2n(Cc2cccc([N+](=O)[O-])c2)c1=O)NCCc1ccccc1 | -6.53 |
| Cc1ccc(S(=O)(=O)NCCC(=O)Nc2cccc(Cl)c2)cc1 | 7.91 |
| Cc1noc(C)c1COC(=O)COc1ccc2c(C)cc(=O)oc2c1 | -1.18 |
| COc1ccc(CC(=O)Nc2ccc(C(=O)O)cc2NC(=O)Cc2ccc(OC)cc2)cc1 | 9.07 |
| COc1ccc(-c2csc(-c3[nH]cnc3N)n2)cc1 | 4.62 |
| CNC(=O)N(O)C1N(c2ccccc2)C(=S)SC1(C)C (centres unmarked) | 12.2 |
| Cc1ccccc1Cn1c2ccccc2c2cnn(CC(=O)NCc3ccccn3)c(=O)c21 | 11.6 |
| Cc1nc2nc(SCC(=O)c3ccccc3)[nH]c2cc1Br | 11.1 |
| O=C(CCNS(=O)(=O)c1cccc2nsnc12)NCc1cccs1 | 12.2 |
| CCn1cnc2c(oc3ccccc32)c1=O | 9.53 |
| Cc1cccc(NC(=O)CSc2n[nH]c(-c3ccncc3)n2)c1 | 4.97 |
| COCCNC(=S)N1CCN(Cc2ccc3c(c2)OCO3)CC1 | 12.7 |
| O=C(CCN1C(=O)c2ccccc2C1=O)Nc1cc(F)ccc1F | -3.66 |
| COC(=O)c1ccc2c(=O)[nH]c(COC(=O)c3c(-c4ccccc4)noc3C)nc2c1 | 12.1 |

| SMILES | hERG current change (%, negative = inhibition) at 1uM [%] |
| --- | --- |
| COc1ccc(C(=O)NNC(=O)C(=O)NCc2ccccc2)cc1 | 17.5 |
| Cc1ccnc(NC(=O)c2cc3ccccc3oc2=O)c1 | 5.36 |
| CCN1CCN(c2cc(C)c3cc(NC(=S)N4CCCC(C)C4)ccc3n2)CC1 (centres unmarked) | 2.87 |
| O=C(COC(=O)c1ccc(Cl)nc1)NNC(=O)c1ccc(Br)cc1 | 3.23 |
| Cc1ccc(C(=O)OCC(=O)NCc2cccs2)cc1S(=O)(=O)N1CCOCC1 | 11.6 |
| Cc1c(C=O)c2ccccc2n1CCOc1ccccc1F | 13.9 |
| O=S(=O)(Cc1ccccc1)Nc1ccccc1Br | 14.9 |
| CCOC(=O)N1CCC(NC(=O)c2ccc(CS(=O)c3cccc(C)c3)o2)CC1 (centres unmarked) | 8.83 |
| O=C1C=C(/C=C/c2ccccc2)C[C@@H](c2ccc3c(c2)OCO3)C1 | 16.1 |
| COc1cc(C(=O)O)ccc1OCc1ccncc1 | 14.1 |
| S=C(CN1CCCC1=S)N1CCOCC1 | 6.25 |
| COc1ccc(CCNC(=O)c2cc(-c3ccco3)on2)cc1OC | 3.74 |
| O=C(COc1ccc(F)cc1)Nc1cc(S(=O)(=O)N2CCCCC2)ccc1N1CCCCC1 | 14.3 |
| Cc1ccnc(NC(=O)CNC(=O)c2ccc(Br)o2)c1 | 8.01 |
| COc1ccc(Cn2c(=O)[nH]c3cc(C(=O)NCCCOC(C)C)ccc3c2=O)cc1 | 9.26 |
| COc1ccc(-n2c(SCC(=O)N3CCCC3)nc3ccccc3c2=O)cc1 | 6.48 |
| Cc1cc(NC(=O)C2CC2)ncc1NC(=O)c1ccccn1 | 11.1 |
| COc1ccc2c(C)cc(SCC(=O)N(C)C3CCS(=O)(=O)C3)nc2c1 (centres unmarked) | 1.75 |
| CCOc1cccc(/C=C/C(=O)O)c1 | 1.39 |
| CCc1cc(=O)oc2c3c(cc(OCC(=O)NCc4cccnc4)c12)OC(C)(C)CC3 | 0.275 |
| COc1ccc(CN2CCNC(=O)C2CC(=O)N(C)CCC2CCOCC2)cc1OC (centres unmarked) | 13.7 |
| CN(C)S(=O)(=O)c1cc(NC(=O)CSc2cccc[n+]2[O-])ccc1Cl | 8.48 |

| SMILES | hERG current change (%, negative = inhibition) at 1uM [%] |
| --- | --- |
| C#CCOCCOCCOCCNc1nc(N2CCN(C(=O)[C@H](CCC(=O)O)n3cc(C(N)Cc4ccc(O)cc4)nn3)CC2)nc(N2CCN(C(=O)[C@H](Cc3cc4ccccc4[nH]3)n3cc(C(N)[C@H](C)CC)nn3)CC2)n1.Cl (some centres unmarked) | 9.28 |
| O=C(COc1ccccc1)N(Cc1ccccc1)c1nc(-c2ccccc2)cs1 | -0.45 |
| CCOC(=O)c1ccccc1NC(=O)Cc1sc(-c2cccnc2)nc1-c1ccc(C)cc1 | 6.78 |
| Cc1nc2sc(C(c3ccco3)N3CCN(C(c4ccccc4)c4ccccc4)CC3)c(O)n2n1 (centres unmarked) | 17.5 |
| CCOc1ccc(C(=O)NCc2cccnc2)cc1[N+](=O)[O-] | -38 |
| O=C(O)C1CCCCC1C(=O)N1CCCC1 (centres unmarked) | 18.7 |
| CC(=O)c1ccc(-n2nnnc2SCC(=O)Nc2sc(C)c(C)c2C#N)cc1 | 3.46 |
| Nc1ccc2c(c1)Cc1ccccc1-2 | 6.39 |
| CCN(CC)CCOC(=O)c1ccc([N+](=O)[O-])cc1.Cl | 6.45 |
| CCOC(=O)N1CCN(C(=O)c2ccc3c(=O)n(CCc4ccc(OC)c(OC)c4)c(=O)[nH]c3c2)CC1 | 20.4 |
| COc1ccccc1NC(=O)c1cccc(NC(=O)c2ccco2)c1 | 1.88 |
| O=C(NCc1ccccc1)c1ccc(Oc2ccc(C(=O)NCc3ccccc3)cc2)cc1 | 3.93 |
| N#C/C(=C/c1ccc(O)c(O)c1)c1nc2ccccc2[nH]1 | 14.2 |
| COc1cc(OC)cc(-c2nc3ccccc3c(=O)n2NC(=O)c2cccnc2Cl)c1 | 16.5 |
| Cc1[nH]nc(SCC(=O)N2CCCCCC2)c1[N+](=O)[O-] | 13.4 |
| COc1cccc(C(=O)N2CCN(C(=O)c3ccc(-c4ccccc4)cc3)CC2)c1OC | -1.48 |
| COC(=O)c1ccc2[nH]c(C(C)(C)O)c(C)c2c1 | 15.8 |
| CC(Oc1ccc2c3c(c(=O)oc2c1)CCC3)C(=O)NCCCn1ccnc1 (centres unmarked) | 11.2 |
| Cc1c(C(=O)Nc2ccc(Cl)cc2)c2ccccn2c1C(=O)c1ccc([N+](=O)[O-])cc1 | 8.01 |
| Cc1ccc(S(=O)(=O)Cc2ccc(C(=O)NCc3ccc4c(c3)OCO4)o2)cc1 | 2.65 |

From PMC4336329 (PLoS ONE, 2015)
